# Data reported in PubChem BioAssay (NCATS).
# The inconclusive results got no clear call from the source; some entries with a clear call stand among them for comparison. For part of these data: Potencies of inconclusive entries are left out as doubtful fits. Activity calls are given as the source filed them. Calls follow the shape of the dose curve; as a rule, active = well fitted curve in the direction sought with a large enough effect; inconclusive = small, poorly fitted or top-dose-only effect, or another doubt; inactive = no such curve, though single readings can be large; an effect the other way counts as inactive or inconclusive.
# Assays:
# [1] = target: Ubiquitin carboxyl-terminal hydrolase 1 (Homo sapiens) (UniProt O94782); assay: Inhibitors of USP1/UAF1: Pilot qHTS (AID 504865);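 also: rhodamine fluorescence freed from ubiquitin-rhodamine substrate followed over time; nearly all actives have a fitted effect of over 35% in size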
# In short: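 1nM USP1/UAF1 + cpd, 15 min RT; start w/ Ub-Rho 150nM final; kinetic FL 480/540 nm, 6 reads q60 s. Buffer 50mM HEPES pH 7.8, 0.5mM EDTA, 1mM TCEP, 0.01% Tween-20, 0.1 mg/ml BSA.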
# CP256 = assay: qHTS profiling for inhibitors of Plasmodium falciparum proliferation (AID 504749); also: nearly all actives have a fitted effect of over 60% in size; conditions: P. falciparum in erythrocytes, SYBR Green DNA, 72 h; series mostly up to 28.7 µM
# In short: (§1)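 Each compound contacts P. falciparum-infected red blood cells for 72 h at 37 C; lysis buffer (Tris, EDTA, saponin, Triton X, SYBR Green I) is added and fluorescence measured next morning; values normalized to controls.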
# ECU = assay: as above; conditions: P. falciparum in erythrocytes, SYBR Green DNA, 72 h; series mostly up to 28.7 µM
# In short: as §1
# [2] = Quantitative High-Throughput drug screen in 47 multiple myeloma cell lines against the NCATS MIPE library collection: AMO1_DSMZ cell viability assay (AID 1918927; also: nearly all actives have a fitted effect of over 30% in size)
# In short: (§2)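 We plated 500 myeloma cells per well, pinned in MIPE 4.0 compounds, and incubated for 48 hours at 37C. ATP was then quantified with CellTiter-Glo, with DMSO and media-only wells defining 100% and 0%.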
# [3] = Quantitative High-Throughput drug screen in 47 multiple myeloma cell lines against the NCATS MIPE library collection: JIM3_ECACC cell viability assay (AID 1918963; also: nearly all actives have a fitted effect of over 35% in size)
# In short: as §2
# [4] = Quantitative High-Throughput drug screen in 47 multiple myeloma cell lines against the NCATS MIPE library collection: MMM1_PLB cell viability assay (AID 1918976); also: nearly all actives have a fitted effect of over 35% in size
# In short: (§3)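 Cells were exposed to library compounds for 48 hours, after which ATP was measured by CellTiter-Glo. Signal was taken as median relative luminescence units.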
# [5] = Quantitative High-Throughput drug screen in 47 multiple myeloma cell lines against the NCATS MIPE library collection: KMS34_JCRB cell viability assay (AID 1918985); also: nearly all actives have a fitted effect of over 40% in size
# In short: as §3
# [6] = Quantitative High-Throughput drug screen in 47 multiple myeloma cell lines against the NCATS MIPE library collection: U266_ATCC cell viability assay (AID 1919864); also: nearly all actives have a fitted effect of over 35% in size
# In short: as §3
# [7] = Quantitative High-Throughput drug screen in 47 multiple myeloma cell lines against the NCATS MIPE library collection: PCM6_Riken cell viability assay (AID 1919870); also: nearly all actives have a fitted effect of over 30% in size
# In short: as §3
# [8] = Quantitative High-Throughput drug screen in 47 multiple myeloma cell lines against the NCATS MIPE library collection: KMS11_JCRBsus cell viability assay (AID 1919873); also: nearly all actives have a fitted effect of over 50% in size
# In short: as §3
# [9] = Quantitative High-Throughput drug screen in 47 multiple myeloma cell lines against the NCATS MIPE library collection: Karpas620_DSMZ cell viability assay (AID 1918959); also: nearly all actives have a fitted effect of over 30% in size
# In short: as §2
# [10] = Quantitative High-Throughput drug screen in 47 multiple myeloma cell lines against the NCATS MIPE library collection: OPM2_DSMZ cell viability assay (AID 1919872); also: nearly all actives have a fitted effect of over 30% in size
# In short: as §2
# [11] = qHTS of pediatric cancer cell lines to identify multiple opportunities for drug repurposing: Confirmatory screen for BT-12 cells (AID 1347112); also: nearly all actives have a fitted effect of over 55% in size
# In short: (§4)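 Viability after 48 h compound treatment at 37C, 500-1,000 cells/well, read as ATP luminescence with CellTiter-Glo. Primary screens used 11-point (MIPE, 0.78 nM-46 µM) or 8-point (NPC, 0.59 nM-46 µM) final concentrations; follow-up screens used 11-point dilutions.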
# [12] = qHTS of pediatric cancer cell lines to identify multiple opportunities for drug repurposing: Confirmatory screen for Rh41 cells (AID 1347123);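 also: 48 h compound exposure; nearly all actives have a fitted effect of over 60% in size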
# In short: as §4
# [13] = qHTS to identify inhibitors of the type 1 interferon - major histocompatibility complex class I in skeletal muscle: primary screen against the NCATS Pharmaceutical Collection (AID 1347407); conditions: human skeletal muscle cells, IFN-b-induced MHC-I HiBiT luminescence, 24 h; series mostly up to 45.9 µM;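 also: luminescence of HiBiT knocked into endogenous HLA-B as interferon-induced MHC class I level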
# In short: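 HLA-B HiBiT myoblasts, dexamethasone-free growth medium + 4 ng/ml IFN-b; compounds pinned 1 h after seeding, […] from 46 uM; 24 h, 37 C, 5% CO2; lytic HiBiT detection, 10 min RT, luminescence.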
# [14] = Quantitative High-Throughput drug screen in 47 multiple myeloma cell lines against the NCATS MIPE library collection: MM1S_ATCC cell viability assay (AID 1918980); also: nearly all actives have a fitted effect of over 45% in size
# In short: as §3
# [15] = Quantitative High-Throughput drug screen in 47 multiple myeloma cell lines against the NCATS MIPE library collection: OCIMY7_PLB cell viability assay (AID 1918987); conditions: OCI-MY7 myeloma viability, CellTiter-Glo ATP, 48 h; series mostly up to 45.8 µM; also: nearly all actives have a fitted effect of over 65% in size
# In short: as §3
# [16] = Quantitative High-Throughput drug screen in 47 multiple myeloma cell lines against the NCATS MIPE library collection: UTMC2_PLB cell viability assay (AID 1919868); conditions: CellTiter-Glo ATP luminescence, 48 h; series mostly up to 45.8 µM; also: nearly all actives have a fitted effect of over 55% in size
# In short: as §3
# [17] = Quantitative High-Throughput drug screen in 47 multiple myeloma cell lines against the NCATS MIPE library collection: PE2_PLB cell viability assay (AID 1919869); conditions: PE2_PLB myeloma cells viability, ATP luminescence, 48 h; series mostly up to 45.8 µM; also: nearly all actives have a fitted effect of over 35% in size
# In short: as §3
# DIV17 = assay: qHTS profiling for inhibitors of Plasmodium falciparum proliferation (AID 504749); also: nearly all actives have a fitted effect of over 60% in size; conditions: P. falciparum in erythrocytes, SYBR Green DNA, 72 h; series mostly up to 28.7 µM
# In short: as §1
# Potency is read from the fitted curve at half-maximal effect; tags tell the direction and shape of the fitted curve.
# UniProt O94782, sequence (O94782 whole entry, looked up): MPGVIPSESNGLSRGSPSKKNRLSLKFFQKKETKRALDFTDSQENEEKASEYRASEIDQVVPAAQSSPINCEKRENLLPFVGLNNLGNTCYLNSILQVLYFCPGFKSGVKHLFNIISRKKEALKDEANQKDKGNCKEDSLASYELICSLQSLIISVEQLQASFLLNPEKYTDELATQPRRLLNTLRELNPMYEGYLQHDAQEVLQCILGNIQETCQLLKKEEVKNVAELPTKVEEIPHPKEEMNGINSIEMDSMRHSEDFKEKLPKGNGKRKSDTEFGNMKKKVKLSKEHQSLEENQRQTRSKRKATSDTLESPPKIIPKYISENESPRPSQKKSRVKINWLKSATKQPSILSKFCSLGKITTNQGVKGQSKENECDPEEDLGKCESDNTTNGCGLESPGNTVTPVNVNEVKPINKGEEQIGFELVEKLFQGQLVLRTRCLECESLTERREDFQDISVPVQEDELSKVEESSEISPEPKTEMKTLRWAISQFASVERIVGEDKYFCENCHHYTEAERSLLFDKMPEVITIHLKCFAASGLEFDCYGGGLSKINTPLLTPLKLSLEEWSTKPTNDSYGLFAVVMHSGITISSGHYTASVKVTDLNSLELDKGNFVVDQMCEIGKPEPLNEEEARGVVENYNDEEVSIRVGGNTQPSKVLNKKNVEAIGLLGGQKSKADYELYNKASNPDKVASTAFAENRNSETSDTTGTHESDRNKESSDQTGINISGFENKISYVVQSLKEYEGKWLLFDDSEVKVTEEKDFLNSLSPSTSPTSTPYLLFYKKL
smiles,measurement,setting,value
N/C(=N\N=C\c1ccc(Cl)cc1)N/N=C/c1ccc(Cl)cc1,Potency,[1],"inconclusive [inhibitor, partial curve, poor fit]"
same,Potency,CP256,active: 10 µM
same,Potency,ECU,"inconclusive [inhibitor, single point]"
OCc1ccc(-c2ccc(-c3ccc(CO)s3)o2)s1,Potency,[2],"inconclusive [cytotoxic, partial curve, poor fit]"
same,Potency,[3],active: 16.6 µM
same,Potency,[4],active: 3.72 µM
same,Potency,[5],active: 18.7 µM
same,Potency,[6],active: 3.32 µM
same,Potency,[7],active: 7.43 µM
same,Potency,[8],active: 11.8 µM
CC(C)(C)c1nc2c3cc[nH]c(=O)c3c3cc(F)ccc3c2[nH]1,Potency,[2],"inconclusive [cytotoxic, full curve, poor fit]"
same,Potency,[9],inactive
same,Potency,[10],active: 1.66 µM
CC(=O)[C@@]1(O)CC[C@H]2[C@@H]3C[C@H](C)C4=CC(=O)CC[C@]4(C)[C@H]3CC[C@@]21C,Potency,[11],"inconclusive [cytotoxic, partial curve, poor fit]"
same,Potency,[12],"inconclusive [cytotoxic, single point]"
same,Potency,[13],"inconclusive [inhibitor, full curve]"
CC(=O)ON=C1C(c2c(O)[nH]c3cc(Br)ccc23)=Nc2ccccc21,Potency,[12],"inconclusive [cytotoxic, partial curve, poor fit]"
same,Potency,[4],active: 20.9 µM
same,Potency,[14],"inconclusive [cytotoxic, partial curve, poor fit]"
same,Potency,[15],active: 1.48 µM
same,Potency,[16],"inconclusive [cytotoxic, partial curve, poor fit]"
same,Potency,[17],active: 4.69 µM
same,Potency,[8],"inconclusive [cytotoxic, single point]"
CC(C)N=C(N)/N=C(\N)Nc1ccc(Cl)cc1,Potency,CP256,active: 0.708 µM
same,Potency,DIV17,"inconclusive [inhibitor, partial curve, poor fit]"
same,Potency,ECU,"inconclusive [inhibitor, partial curve]"
CCn1nnc2c(N3CCOCC3)nc(-c3ccc(NC(=O)Nc4ccc(C(=O)N5CCN(C)CC5)cc4)cc3)nc21,Potency,[11],"inconclusive [cytotoxic, full curve]"
same,Potency,[9],"inconclusive [cytotoxic, full curve]"
same,Potency,[6],"inconclusive [cytotoxic, full curve]"
same,Potency,[17],"inconclusive [cytotoxic, full curve]"
N#Cc1c(C2CCNCC2)cc(-c2c(O)cccc2OCC2CC2)nc1N,Potency,[3],active: 18.7 µM
same,Potency,[5],"inconclusive [cytotoxic, partial curve]"
same,Potency,[15],active: 2.35 µM
same,Potency,[16],"inconclusive [cytotoxic, partial curve, poor fit]"
same,Potency,[7],active: 8.33 µM
same,Potency,[10],"inconclusive [cytotoxic, single point]"
C[C@@H]1C[C@H]2[C@@H]3CCC4=CC(=O)C=C[C@]4(C)[C@@]3(Cl)[C@@H](O)C[C@]2(C)[C@@]1(OC(=O)c1ccco1)C(=O)CCl,Potency,[4],active: 18.7 µM
same,Potency,[14],"inconclusive [cytotoxic, partial curve]"
same,Potency,[5],"inconclusive [cytotoxic, partial curve, poor fit]"
same,Potency,[8],"inconclusive [cytotoxic, full curve]"
COc1c(C)c2c(c(O)c1C/C=C(\C)CCC(=O)OCCN1CCOCC1)C(=O)OC2,Potency,[11],"inconclusive [cytotoxic, full curve, poor fit]"
CCc1ccccc1OC[C@@H](O)CN[C@H]1CCCc2ccccc21,Potency,[1],"inconclusive [inhibitor, partial curve, poor fit]"
CCCCCCCCc1ccc(CCC(N)(CO)CO)cc1,Potency,[3],active: 13.2 µM
same,Potency,[14],active: 7.43 µM
same,Potency,[17],active: 8.33 µM
same,Potency,[7],active: 3.72 µM
CCC1=C[C@@H]2CN(C1)Cc1c([nH]c3ccccc13)[C@@](C(=O)OC)(c1cc3c(cc1OC)N(C)[C@H]1[C@@](O)(C(=O)OC)[C@H](OC(C)=O)[C@]4(CC)C=CCN5CC[C@]31[C@@H]54)C2,Potency,[12],"inconclusive [cytotoxic, full curve, poor fit]"
same,Potency,[13],"inconclusive [inhibitor, full curve]"
CCCN(CCc1cccs1)[C@H]1CCc2c(O)cccc2C1,Potency,[13],"inconclusive [inhibitor, single point]"
same,Potency,CP256,"inconclusive [inhibitor, single point]"
same,Potency,DIV17,active: 3.01 µM
COCCOC(=O)C1=C(C)NC(C)=C(C(=O)OC(C)C)C1c1cccc([N+](=O)[O-])c1 (stereo not given),Potency,ECU,"inconclusive [inhibitor, single point]"
Cc1cnc(NC(=O)Nc2cc(Br)c(C)cc2OC[C@@H]2CNCCO2)cn1,Potency,[2],"inconclusive [cytotoxic, full curve]"
same,Potency,[9],"inconclusive [cytotoxic, full curve, poor fit]"
same,Potency,[15],"inconclusive [cytotoxic, full curve, poor fit]"
same,Potency,[6],"inconclusive [cytotoxic, partial curve, poor fit]"
same,Potency,[16],active: 1.48 µM
same,Potency,[10],"inconclusive [cytotoxic, partial curve]"
C[C@@H](CN(C)C)CN1c2ccccc2Sc2ccccc21,Potency,DIV17,"inconclusive [inhibitor, partial curve, poor fit]"
C/C=C/C(=O)N(CC)c1ccccc1C,Potency,[1],inactive
